91 compounds from PubChem BioAssay AID463173 (ICCB-Longwood Screening Facility, Harvard Medical School, 2010) can be followed below.

Each structure is given as a SMILES string. Screen size: about 52,000 compounds; about 4,300 (8.3%) were called active. Rule as the data show it: active = survival mostly below about 52% (no sharp cut-off); inactive = mostly above about 56%. This is one part of the list.

The subject of the assay is DeltatarO mutant. Description: S. aureus survival, RN4220 and DeltatarO strains – OD600, teichoic acid synthesis inhibitors, primary screen (AID 463173). The settings on record: S. aureus RN4220 wild type/DeltatarO growth, OD600, 18 h, hits give low values, screened at 18.75 µg/mL (by protocol).
With `C=CCNC(=O)Cn1c(-c2ccc(F)cc2)nc2ccccc21`, the survival is inactive: 82%.

Turning to `Cc1cc(C)cc(OCC(=O)Nc2c(C(=O)c3ccccc3)oc3ccccc23)c1`, the survival is inactive: 92%.

As for `O=C(CCn1c(=O)c2cccn2c2cccnc21)Nc1ccccc1C(F)(F)F`, the survival is inactive: 85%.

`CCC(=O)N1c2ccccc2CC1C(=O)NCc1cc(OC)ccc1OC` (stereo unspecified): the survival was inactive: 67%.

Consider `COc1ccc(-c2nc3c(c(SC)n2)Cc2c(CO)cnc(C)c2O3)cc1`, for which the survival is inactive: 83%.

Consider `CCn1c(=O)c2cc(C(=O)NCCCN3CCN(C)CC3)sc2c2ccccc21`, for which the survival is inactive: 110%.

For `Cc1ccccc1NC(=O)c1c(C)oc2ccc(O)c(CN3CCOCC3)c12`, the survival was inactive: 74%.

As to `O=C(CSc1n[nH]c(-c2ccccc2Cl)n1)NCc1ccc(F)cc1`, the survival is active: -4%.

For `COC(=O)c1sc2nc(C)cc(C)c2c1N`, the survival is inactive: 87%.

Turning to `O=C(CCC(=O)c1ccc(F)cc1)Nc1ccc(Cl)cc1`, the survival was inactive: 94%.

As for `O=C(c1ccc2c(c1)N(Cc1ccccc1F)C(=O)c1ccccc1S2(=O)=O)N1CCN(c2ccccn2)CC1`, the survival is inactive: 79%.

Regarding `CCOc1ccc(CNC(=O)C2CCCCN2S(=O)(=O)c2ccc(F)cc2)cc1OC` (stereo unspecified), the survival is inactive: 70%.

`CCOC(=O)c1cc2c(ccn2C)n1Cc1ccc(OC(F)(F)F)cc1`: the survival was inactive: 96%.

For `CC1CCCN(c2nc3c(-c4ccc(Cl)cc4)nnn3c3ccccc23)C1` (stereo unspecified), the survival was inactive: 87%.

With `Cc1cc(Cl)ccc1NS(=O)(=O)c1c(C(=O)N2CCC(C)CC2)c(C)n(C)c1C`, the survival is inactive: 55%.

Consider `O=C(Cn1c(-c2ccccc2)noc1=O)NCc1ccccc1`, for which the survival is inactive: 102%.

Turning to `Cc1ccc(-c2csc(-c3cc4c([nH]c3=O)CC(c3ccccc3)CC4=O)n2)cc1` (stereo unspecified), the survival is inactive: 86%.

As to `COc1ccc2oc(=O)c(-c3nnc(-c4ccc(C)cc4)o3)cc2c1`, the survival was inactive: 138%.

Regarding `Cc1cc2c(cc1S(=O)(=O)Nc1ccc(OC(F)(F)F)cc1)OCC(=O)N2`, the survival is inactive: 49%.

For `CCN(CC)S(=O)(=O)c1ccc2c(c1)N(CC(=O)NCc1ccccc1)C(=O)C1CCCCN21` (stereo unspecified), the survival was inactive: 73%.

Consider `COc1ccc(S(=O)(=O)NCc2nc3nc(C)cc(C)n3n2)cc1`, for which the survival was inactive: 89%.

With `O=C(NCCCN1CCN(c2cccc(Cl)c2)CC1)c1sc2ncccc2c1-n1cccc1`, the survival is inactive: 70%.

In the case of `Cc1ccc(-c2nc(CS(=O)(=O)CC(=O)Nc3ccc(Br)cc3F)c(C)o2)cc1`, the survival was inactive: 77%.

Regarding `CCC(=O)Oc1c(Sc2ccc(Cl)cc2)c(C)nn1-c1ccccc1`, the survival was active: 13%.

For `CCOc1ccc(NC(=O)CSC2=Nc3ccccc3C3=NC(CCC(=O)NCc4ccco4)C(=O)N23)cc1` (stereo unspecified), the survival was inactive: 67%.

Turning to `Cc1ccc(/C=C/c2onc(C)c2S(=O)(=O)N2CCC(C(=O)Nc3ccccc3C(F)(F)F)CC2)cc1`, the survival is inactive: 75%.

`CC(=O)c1ccc(N2CCN(c3ncnc4c3c(-c3ccccc3)cn4-c3ccc(Cl)cc3)CC2)cc1`: the survival was inactive: 91%.

As to `CCCCSc1nnc2n(-c3ccc(OC)cc3)c(=O)c3c4c(sc3n12)COC(C(C)C)C4` (stereo unspecified), the survival is inactive: 52%.

Take `N#C/C(=C\c1cn(CC(=O)NCC2CCCO2)c2ccccc12)C(=O)NCC1CCCO1` (stereo unspecified): the survival was inactive: 105%.

Take `CCOC(=O)c1cc(S(=O)(=O)Nc2cc(F)ccc2C)[nH]n1`: the survival was inactive: 60%.

As for `CCCc1nn2c(=O)cc(COC(=O)c3ccccc3NC(=O)COc3ccccc3)nc2s1`, the survival is inactive: 95%.

On to `CCc1ccc(NC(=O)Cn2c(=O)n(CCC(C)C)c(=O)c3cccnc32)cc1`, for which the survival was inactive: 76%.

Consider `O=C(Cc1ccc(Cl)cc1)N1CCOCC1`, for which the survival was inactive: 95%.

On to `COc1ccccc1NC(=O)c1c(NCc2ccc(C)o2)sc2c1CCCCC2`, for which the survival was inactive: 77%.

As for `CCOC(=O)N1CCc2c(sc3c2C(=O)NC(c2cc(OC)c(OC)c(OC)c2)N3)C1` (stereo unspecified), the survival was inactive: 60%.

Turning to `CC(=O)Nc1nonc1-c1nnc(SCc2ccccc2F)n1C`, the survival was inactive: 46%.

For the compound `CCc1ccccc1NS(=O)(=O)c1ccc2c(c1)CC(=O)N2`, the survival was inactive: 99%.

In the case of `COc1ccc(-n2cc(C(=O)NCCc3cc(OC)ccc3OC)c3ccccc3c2=O)cc1`, the survival is active: 55%.

For `CCC(C(=O)Nc1cccc(-c2nc3cccnc3s2)c1C)c1ccccc1` (stereo unspecified), the survival was inactive: 92%.

For the compound `CCOC(=O)c1c(C)[nH]c(C)c1S(=O)(=O)N1CCCC(C(=O)NCc2ccc(N(C)C)cc2)C1` (stereo unspecified), the survival is inactive: 89%.

With `O=C(CSc1nnc(-c2ccco2)n1CC1CCCO1)c1ccccc1` (stereo unspecified), the survival was inactive: 79%.

As to `CCOC(=O)c1ccc(-c2ccc(C=C(C#N)C#N)o2)cc1`, the survival was inactive: 87%.

As to `COC(=O)/C(C#N)=C/c1ccc(-c2ccccc2)o1`, the survival is inactive: 75%.

Regarding `CC(C)CC(=O)Nc1nnc(S(=O)(=O)N(C)Cc2ccc(Cl)cc2)s1`, the survival is inactive: 75%.

Turning to `CNC(=O)CSc1nc2cc3c(cc2cc1C)OCCO3`, the survival was inactive: 77%.

Consider `CNC(=O)CSc1cn(CC(=O)N2CCCCCC2)c2ccccc12`, for which the survival was inactive: 97%.

Take `CC1=C(C(=O)Nc2ccc(C)cc2C)C(c2cccs2)n2nc(SCc3cccc(C)c3)nc2N1` (stereo unspecified): the survival was inactive: 125%.

Consider `COc1cccc(CNC(=O)Cn2nc(-c3ccc(Cl)cc3)ccc2=O)c1`, for which the survival was inactive: 135%.

Regarding `CC(=O)c1ccc(NC(=O)c2cc(C)nc3c2c(C)nn3-c2ccc(C)cc2)cc1`, the survival was inactive: 102%.

Take `Cc1cccc2c1N(Cc1ccccc1OCCC(C)C)C(=O)C2=O`: the survival is active: 2%.

Consider `COc1ccc(-n2c(=O)c3c(c4cc(OC)ccc4n3C)n(Cc3cccc(C)c3)c2=O)cc1`, for which the survival was inactive: 77%.

With `CCn1c(SCCN2CCOCC2)nnc1C1CCCCC1`, the survival was inactive: 66%.

With `COc1ccc2c(c1)c(=O)c(S(=O)(=O)c1ccccc1)cn2CC(=O)Nc1ccc(C)c(Cl)c1`, the survival is inactive: 97%.

Turning to `Clc1ccccc1-c1nnc(COc2ccccc2)o1`, the survival is inactive: 50%.

`Cc1ccc(CN(Cc2ccco2)C(=O)c2oc3cc(Br)ccc3c2C)cc1`: the survival is active: 43%.

For `CC(C)CNC(=S)N1CCC(c2nc(-c3ccc(F)cc3)no2)CC1`, the survival is inactive: 54%.

Consider `CCOC(=O)c1ccc(NC(=O)CSc2nc3cc4ccccc4cc3[nH]2)cc1`, for which the survival was inactive: 65%.

On to `Cc1nc2nc(NC(=O)c3ccc(C(C)(C)C)cc3)[nH]n2c(=O)c1Cc1ccccc1`, for which the survival is inactive: 108%.

`CC1Cc2ccccc2N1C(=O)Cn1nnc(-c2ccccc2F)n1` (stereo unspecified): the survival was inactive: 91%.

Consider `Cc1ccc(-n2c(=O)c3c4c(sc3n(Cc3cc(=O)n5ccccc5n3)c2=O)CCC4)cc1C`, for which the survival is inactive: 172%.

Consider `COc1ccc(CNC(=O)Cn2ccc3cc(S(=O)(=O)N4CCCCC4)ccc32)cc1OC`, for which the survival was inactive: 96%.

With `COc1ccc(OC)c(NC(=O)CN2C(=O)CC(C)Sc3ccccc32)c1` (stereo unspecified), the survival was inactive: 82%.

Consider `CC(C)CCn1nnnc1CN1CCN(Cc2ccc3c(c2)OCO3)CC1`, for which the survival is inactive: 69%.

For the compound `N#Cc1c(N)nc2c(c1-c1ccccc1)CCCC2`, the survival was inactive: 102%.

Regarding `O=C(CCOc1ccccc1)N(Cc1cccnc1)c1nc2ccc(Cl)cc2s1`, the survival was inactive: 84%.

For `CCOc1ccc(NC(=O)CSc2oc(-c3ccc(F)cc3)nc2S(=O)(=O)c2ccc(C)cc2)cc1`, the survival was inactive: 63%.

With `CCn1cc(C(=O)NCCc2ccc(OC)c(OC)c2)c(=O)c2cc(S(=O)(=O)N3CCCCCC3)ccc21`, the survival is inactive: 123%.

In the case of `CCOC(=O)c1sc2ccccc2c1S(=O)(=O)Nc1ccc(C(C)=O)cc1`, the survival is inactive: 92%.

For `CC(=O)c1ccc(NS(=O)(=O)c2c(C)nc3scc(C)n3c2=O)cc1`, the survival is inactive: 88%.

As to `Cc1cccc(Cn2c(=O)n(Cc3ccccc3)c(=O)c3c2c2cc(C)ccc2n3C)c1`, the survival is inactive: 78%.

As to `NC(=O)CN1c2cccc3cccc(c23)S1(=O)=O`, the survival was inactive: 104%.

`CCc1ccc(N(CC)C(=O)Cn2nc(Cc3cccnc3)c3ccccc3c2=O)cc1`: the survival was inactive: 81%.

In the case of `CSc1ncc(C(=O)Nc2ccc(C)c(Cl)c2)c(-c2ccccc2)n1`, the survival was inactive: 92%.

As to `COc1ccc(Cl)cc1NC(=O)N(C)CCc1c(C)nn(C)c1C`, the survival was inactive: 79%.

In the case of `COc1ccccc1NC(=O)c1oc2ccccc2c1NC(=O)COc1cccc(C)c1`, the survival is inactive: 72%.

Regarding `Cc1ccc2oc(-c3ccc(C)c(NC(=O)C(C)(C)Oc4ccc(Cl)cc4)c3)nc2c1`, the survival is active: 13%.

In the case of `CC1=C(C(=O)OCC2CCCCC2)C(c2ccc(Cl)cc2)CC(=O)N1` (stereo unspecified), the survival was inactive: 96%.

For the compound `O=C1N(Cc2ccccc2Cl)c2ccccc2C1(O)c1c[nH]c2ccccc12` (stereo unspecified), the survival was inactive: 64%.

With `CC1(C)N=C(SCc2ccccc2Cl)c2ccccc2N1`, the survival is inactive: 105%.

On to `Cc1ccc(S(=O)(=O)c2nnn3c2nc(NC(C)C)c2cc(Cl)ccc23)cc1C`, for which the survival was inactive: 97%.

For the compound `CC1(C)N=C2C(=[N+]1[O-])CCC/C2=N/O`, the survival is inactive: 95%.

`CCCCNC(=O)CSc1nc2n[nH]c(C)c2c(=N)n1-c1cccc(Cl)c1C`: the survival is inactive: 124%.

For the compound `Cc1cccc(-c2noc(-c3cccnc3NCc3ccc(Cl)cc3)n2)c1`, the survival was inactive: 73%.

In the case of `COc1ccc(S(=O)(=O)Nc2ccc3oc4c(c3c2)CCCC4)cc1`, the survival was active: 27%.

Turning to `O=S(=O)(c1ccccc1)N1CCCC(C(F)(F)F)C1` (stereo unspecified), the survival was inactive: 100%.

As to `COc1ccc2c(c1)sc1ncc(C(=O)NCc3ccccc3F)c(=O)n12`, the survival is inactive: 101%.

Turning to `O=C(OC(C(=O)NCc1ccc2c(c1)OCO2)c1ccccc1F)c1ccco1` (stereo unspecified), the survival was inactive: 86%.

With `CCN(CC)CN1C(=O)C2C3c4ccccc4C(c4ccccc43)C2C1=O` (stereo unspecified), the survival was inactive: 80%.

With `Cc1sc2ncn(CC(=O)Nc3ccc(C(C)C)cc3)c(=O)c2c1S(=O)(=O)N1CCN(c2ncccn2)CC1`, the survival is inactive: 59%.

For the compound `COc1ccc(S(=O)(=O)N2CCC(C(=O)Nc3ccccc3)CC2)cc1OC`, the survival was inactive: 63%.

Consider `CCOC(=O)c1c(C)[nH]c(C)c1S(=O)(=O)NCC(=O)Nc1cccc(C#N)c1`, for which the survival was inactive: 128%.
